Test results from PubChem BioAssay AID686971 (National Center for Advancing Translational Sciences (NCATS), 2013).
The whole screen tested about 360,000 compounds, of which about 7,500 (2.1%) were called active. This list was built around the results that the source calls inconclusive (neither active nor inactive); the mix of calls is not that of the screen. Calls come from the whole dose curve; as a rule, active = well fitted cell-killing curve with a large enough effect; inconclusive = small, poorly fitted or top-dose-only effect, or effect the other way, or another doubt; inactive = no such curve, though single readings can be large or run the other way. Potencies of inconclusive entries are left out as doubtful fits.

Assay: qHTS for induction of synthetic lethality in tumor cells producing 2HG: qHTS for the HT-1080-IDH1KD cell line;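 for activity, negative = toxicity: 0% = DMSO wells and -100% = cell-free medium wells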
Conditions: HT-1080 IDH1 knockdown viability, ATP luminescence, 48 h; activity, negative = toxicity: at 46.1 µM (top of the series) unless noted
Summary of the method: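 Using the IDH1-knockdown HT-1080 line run in the same batch and compound series as the NT line, viability after 48 h at 37 °C was determined by CellTiter-Glo luminescence and expressed as % activity.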
Potency is the fitted concentration of half-maximal effect; tags give direction and shape of the fitted curve.

Row | Compound | Potency | activity, negative = toxicity
1 | COC(=O)c1c(-c2ccccc2)csc1NC(=O)c1c(-c2ccccc2)noc1C | inconclusive [cytotoxic, full curve, poor fit] | –
2 | Cc1ccc(-n2nc3c(=O)n(CC(=O)c4ccc(F)cc4)nc(C)c3c2C)cc1 | inactive | –
3 | CCCCCCCCCCOC(=O)Cn1c(COc2ccccc2)[n+](C)c2ccccc21 | inactive | –
4 | COc1ccc(Nc2ccc3c(c2)=NC2(CCCCC2)[N+]=3[O-])cc1 | inconclusive [cytotoxic, single point] | –
5 | CSc1ccc(C#N)cc1NC(=O)c1ccccc1C | inactive | –
6 | COC(=O)CC1(C(=O)OC)Oc2ccc(Br)cc2C(=O)N1c1cccc(Cl)c1Cl (stereo not drawn) | inconclusive [cytotoxic, single point] | –
7 | COc1cccc(-c2sc3ccccc3c2-c2ccc(OCCN3CCCC3)cc2)c1 | inconclusive [cytotoxic, single point] | –
8 | CC1=NN(c2ccccc2)C(=O)/C1=C\C=C1/N(C)c2ccccc2C1(C)C | inactive | –
9 | Cc1ncc(CO)c2c1Oc1nc(-c3ccccc3F)nc(SCC(=O)N(C)c3ccccc3)c1C2 | active: 20.6 µM | –
10 | CC(C)c1ccccc1NC(=O)Nc1nc(C(N)Cc2ccc(C(F)(F)F)cc2)cs1 (stereo not drawn) | inconclusive [cytotoxic, full curve] | –
11 | O=C1c2ccccc2NC(c2ccc(Cl)cc2Cl)N1Cc1ccccc1 (stereo not drawn) | inconclusive [cytotoxic, single point] | –
12 | CCOC(=O)C1=CCN(S(=O)(=O)c2ccc(C)cc2)C1c1ccc(C(C)C)cc1 (stereo not drawn) | inconclusive [cytotoxic, partial curve] | –
13 | Cc1cccc(-n2c(SCC(=O)N3CCN(c4ccccn4)CC3)nnc2N2CCOCC2)c1 | inactive | –
14 | Cc1nn(CC(=O)Nc2cccc(O)c2)c(=O)c2ccccc12 | inactive | –
15 | CC(C)=CCC/C(C)=C/CNC(=O)C[C@H]1C[C@H](C(=O)N2CCCCC2)[C@@]2(C)c3[nH]c4cc(-c5ccco5)ccc4c3CCN2C1=O | inconclusive [cytotoxic, single point] | –
16 | Cc1ccc(C)c2nc3sc(C(=O)N4CCCc5ccccc54)c(N)c3cc12 | – | inconclusive: 28.8%
17 | CCN1CCN(c2cc(C)c3cc(NC(=O)c4cccs4)ccc3n2)CC1 | inconclusive [cytotoxic, single point] | –
18 | COc1ccc(C2NC(=S)NC3=C2CCCC3=C2SCCS2)cc1 (stereo not drawn) | active: 6.51 µM | –
19 | Cc1ccc(Cl)cc1NC(=S)NN | inconclusive [cytotoxic, single point] | –
20 | COCCCNc1c2c3c(cccc3[nH]c1=O)C(=O)c1ccccc1-2 | inconclusive [cytotoxic, single point] | –
21 | Cc1cccc(Oc2nc(-c3ccccc3)cc(C)c2S(C)(=O)=O)c1C | inconclusive [cytotoxic, partial curve] | –
22 | CCc1ccc(C(O)c2ncc(-c3cccc4ccccc34)[nH]2)cc1 (stereo not drawn) | inconclusive [cytotoxic, single point] | –

Row | Compound | Potency | activity, negative = toxicity
23 | O=C(Cc1coc2ccc3ccccc3c12)NCc1ccccc1 | inconclusive [cytotoxic, single point] | –
24 | O=C(Nc1ccc2c(c1)OCO2)N1CCN(c2ccccc2Cl)CC1 | inconclusive [cytotoxic, single point] | –
25 | Cc1ccc(NC(=O)/C=C/c2ccco2)nc1 | active: 0.0058 µM | –
26 | C#CCOCCOCCOCCNc1nc(N2CCN(C(=O)CCCCCCCCCCNC(=O)Cn3cc(CCCCCN)nn3)CC2)nc(N2CCN(C(=O)CCCCCCCCCCNC(=O)[C@H]([C@@H](C)CC)n3cc(CCCCCN)nn3)CC2)n1 | inconclusive [cytotoxic, single point] | –
27 | C[C@@H]1CN([C@H](C)CO)C(=O)c2c(c3ccccc3n2C)-c2ccccc2CO[C@H]1CN(C)Cc1ccc(Oc2ccccc2)cc1 | inconclusive [cytotoxic, single point] | –
28 | O=C(NCCCO)c1cc2c([nH]c3ccccc32)c(-c2ccccc2)n1 | inactive | –
29 | Cc1nn(-c2ccccc2)c(NC(=O)c2ccccc2)c1Br | inconclusive [cytotoxic, partial curve] | –
30 | Cc1ccc2c(c1)[C@H]1[C@H](CO2)[C@H](c2ccccc2)[C@]2(C)C(=O)Nc3ccc(Cl)cc3C(=O)N12 | inconclusive [cytotoxic, partial curve] | –
31 | O=Cc1ccc(N2CCCC2)c([N+](=O)[O-])c1 | inactive | –
32 | CN(C)S(=O)(=O)c1cccc(NC(=O)COC(=O)c2cc3ccccc3oc2=O)c1 | inactive | –
33 | COc1ccccc1-n1nnnc1S(=O)(=O)Cc1ccc(Cl)cc1 | active: 16.4 µM | –
34 | O=c1cc(-c2ccccc2)[nH]n1-c1nc2ccccc2[nH]1 | active: 12.6 µM | –
35 | N#CC1=C(N)OC2=C(C(=O)CCC2)C1c1ccccc1 (stereo not drawn) | inactive | –
36 | COc1ccc(CC2(CO)CCN(CC3=Cc4cc(Cl)ccc4OC3)CC2)cc1 | active: 23.1 µM | –
37 | CCN1CCN(S(=O)(=O)c2ccc(Cl)c(C(=O)Oc3ccc(CC(=O)OC)cc3)c2)CC1 | inactive | –
38 | CC(=O)NC(Cc1ccccc1)C(=O)N1CCN(C(=S)NCC(C)C)CC1 (stereo not drawn) | inactive | –
39 | CCOc1cc(/C=C(\C#N)C(=O)Nc2cccc(C(=O)O)c2)cc(Br)c1OC(=O)c1ccc(OC)cc1 | inconclusive [cytotoxic, single point] | –
40 | COc1cccc(NC(=O)Cn2nnc(C(=O)NCc3cccs3)c2N)c1 | inconclusive [cytotoxic, single point] | –
41 | O=C1NC(=Nc2cccc(O)c2)S/C1=C\c1cccc([N+](=O)[O-])c1 | inconclusive [cytotoxic, partial curve] | –
42 | CCc1ccc(OC2(C)CCN(Cc3ccc(SC)cc3)C2)cc1 (stereo not drawn) | inconclusive [cytotoxic, single point] | –
43 | CCCSC1=C(C#N)C(c2ccc(OC)cc2)C2=C(CC(C)(C)CC2=O)N1 (stereo not drawn) | inconclusive [cytotoxic, single point] | –
